# According to PMC4336329 (PLoS ONE, 2015):
# Hit rate of the full screen: of about 310,000 compounds, about 14,000 (4.5%) showed an effect of 50% or more. Effects have a minus sign here. This is one part of the list.
# Biological target: human ether-à-go-go-related gene (hERG) potassium channel (human, UniProt Q12809)
# Experiment: primary screen, population patch clamp on CHO cells stably expressing hERG
# 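Also: peak tail current of the secondary pulse compared with the same well before compound.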
# Chain of human ether-à-go-go-related gene (hERG) potassium channel (Q12809 whole entry, looked up): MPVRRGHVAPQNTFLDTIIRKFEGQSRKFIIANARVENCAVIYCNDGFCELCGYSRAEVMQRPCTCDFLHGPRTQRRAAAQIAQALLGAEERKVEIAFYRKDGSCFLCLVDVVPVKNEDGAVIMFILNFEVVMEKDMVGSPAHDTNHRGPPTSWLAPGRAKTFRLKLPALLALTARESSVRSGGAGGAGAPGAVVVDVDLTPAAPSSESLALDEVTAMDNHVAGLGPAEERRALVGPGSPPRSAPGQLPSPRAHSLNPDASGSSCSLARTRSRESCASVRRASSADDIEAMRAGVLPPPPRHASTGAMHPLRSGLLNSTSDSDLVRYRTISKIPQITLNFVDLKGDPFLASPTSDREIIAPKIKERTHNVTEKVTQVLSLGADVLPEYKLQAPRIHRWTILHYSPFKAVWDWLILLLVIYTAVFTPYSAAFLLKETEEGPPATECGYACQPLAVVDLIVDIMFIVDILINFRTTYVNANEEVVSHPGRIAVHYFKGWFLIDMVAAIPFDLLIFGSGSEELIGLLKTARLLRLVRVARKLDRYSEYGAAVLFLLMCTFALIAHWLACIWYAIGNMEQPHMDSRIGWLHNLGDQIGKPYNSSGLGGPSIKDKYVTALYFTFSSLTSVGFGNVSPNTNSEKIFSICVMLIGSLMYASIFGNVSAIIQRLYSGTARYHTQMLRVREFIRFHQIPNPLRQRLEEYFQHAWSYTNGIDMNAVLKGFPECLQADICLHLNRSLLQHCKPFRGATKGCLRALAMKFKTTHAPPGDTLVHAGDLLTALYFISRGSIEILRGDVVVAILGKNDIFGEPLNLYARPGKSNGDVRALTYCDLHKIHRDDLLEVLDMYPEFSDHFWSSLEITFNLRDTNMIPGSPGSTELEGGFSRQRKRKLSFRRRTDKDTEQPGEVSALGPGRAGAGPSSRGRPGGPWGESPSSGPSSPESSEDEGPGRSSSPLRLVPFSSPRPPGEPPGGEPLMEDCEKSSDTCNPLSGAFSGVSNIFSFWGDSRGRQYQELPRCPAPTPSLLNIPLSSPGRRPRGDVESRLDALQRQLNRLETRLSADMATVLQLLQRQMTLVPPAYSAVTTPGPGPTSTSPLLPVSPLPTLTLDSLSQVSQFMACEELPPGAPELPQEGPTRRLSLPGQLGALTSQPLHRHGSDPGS
row,SMILES,"hERG current change (%, negative = inhibition) at 10uM"
1,COc1ccc2[nH]cc(CCNC(=O)c3ccc([N+](=O)[O-])cc3)c2c1,-28.8%
2,CCC(=O)N1CCN(C(=O)CC)C1c1ccccc1,4.33%
3,COc1cccc(S(=O)(=O)Nc2ccc(C(=O)NCc3ccco3)cc2)c1,3.01%
4,CN(c1ccccc1)S(=O)(=O)c1ccc(C(=O)Nc2ncccc2O)cc1,-1.85%
5,CN(O)/C=c1/ccc2c(n1)C(=O)C=CC=2,-8.33%
6,O=C(c1cc(-c2ccccc2)nc2ccccc12)N1CCN(c2ccccn2)CC1,-27.6%
7,Cc1ccccc1Cn1c(=O)c2c(nc3n2CCCN3Cc2ccccc2)n(C)c1=O,-15.3%
8,CC(C)(C)C1CCC(=NNC(=O)c2cc3c(s2)CCCC3)CC1 (centres unmarked),20.1%
9,C1=C(c2ccccc2)CCN(c2ncnc3nc[nH]c23)C1,-13.9%
10,CCOC(=O)c1cnn(-c2cccc(Cl)c2)c1N,-17.6%
11,O=S(=O)(c1ccc(NC(=S)N/N=C/c2ccc(N3CCOCC3)cc2)cc1)N1CCOCC1,13.9%
12,Clc1ccc(SCCN2CCNCC2)cc1.O=C(O)C(=O)O,-5.25%
13,COC(=O)c1sccc1NC(=O)CSc1ccccc1NS(=O)(=O)c1ccc(Cl)cc1,-1.77%
14,Cc1c(NC(=O)c2cccnc2C(=O)O)cccc1C(=O)O,1.63%
15,CCOc1ccc(-c2c(=O)n(OCC)c3ccccc3[n+]2[O-])cc1,-33%
16,Cc1ccc(-n2cccc2/C=C2/C(=N)N3C(=NC2=O)SN=C3S(C)(=O)=O)cc1,4.34%
17,CS(=O)(=O)c1ccc(Cl)c(NC(=O)CCc2ccccc2)c1,-33.6%
18,COc1ccccc1NC(=S)N1CCN(c2nc(-c3ccccc3)cs2)CC1,8.15%
19,CCOc1cc(C(=O)OCc2ccc([N+](=O)[O-])cc2)ccc1OCC(=O)N1CCOCC1,-42.7%

row,SMILES,"hERG current change (%, negative = inhibition) at 10uM"
1,COCCCNCCCOc1ccc(Cl)cc1C(C)(C)C,-57.5%
2,CCOC(=O)c1ccc(NC(=S)Nc2ccccn2)cc1,15.4%
3,Brc1ccc(-c2noc(CCc3ccccc3)n2)o1,-2.91%
4,Br.NC12CC3CC(C1)CC(O)(C3)C2,12.7%
5,C=CCc1cccc2cc(C(=O)NNC(=O)CC#N)c(=O)oc12,1.21%
6,COc1ccc(NC(=O)CC(NCCc2ccccc2)C(=O)O)c(OC)c1 (centres unmarked),5.31%
7,Cc1ccc(C(=O)CCC(=O)NNC(=O)c2ccccc2O)cc1,-4.07%
8,CCOc1ccccc1N1CC(C(=O)N2CCN(Cc3ccc(C#N)cc3)CC2)CC1=O (centres unmarked),-67.3%
9,COc1ccc(-c2[nH]nc(-c3ccccc3)c2-c2nc3ccccc3[nH]2)cc1,-3.17%
10,Cc1ccc(C2(C)NC(=O)N(CC(=O)Nc3cc(S(=O)(=O)N(C)C)ccc3C)C2=O)cc1 (centres unmarked),-24.9%
11,CCOc1ccc(C(C)=O)cc1CSc1nnc(-c2cccs2)n1CC1CCCO1 (centres unmarked),-26.8%
12,CC(O)c1cccc(NC(=O)CCCc2ccccc2)c1 (centres unmarked),19.1%
13,CCOC(=O)c1cnc(-c2ccccc2)nc1Oc1ccc(OC)cc1,14.2%
14,CSc1ccc(C#N)cc1NC(=O)c1ccccc1,-36.5%
15,CC(C)SC1=NC(C)(C)C=C(/C=C/c2c(Cl)cccc2Cl)N1,7.98%
16,CCOc1ccc(/C=N/n2nnnc2N)cc1O,-21.5%
17,Cn1nnc(NCc2cc(Br)ccc2OCc2cccs2)n1,-3.74%
18,C[C@H]1CCC/C=C/[C@@H]2C[C@H](O)C[C@H]2[C@H](O)/C=C/C(=O)O1 [56463468],7.27%
19,Cc1ccc(CNC(=O)c2ccc(C)c(S(=O)(=O)N3CCCCC3)c2)cc1,-17.9%

row,SMILES,"hERG current change (%, negative = inhibition) at 10uM"
1,COc1ccc(NC(=O)c2ccc(-c3ccc(C)c4ccccc34)o2)cc1,-1.32%
2,COCCN(C(=O)Cn1nnc2ccccc21)C(C(=O)NC1CCCC1)c1ccc(OC)cc1OC (centres unmarked),-2.72%
3,Nc1nc(-c2nonc2N)no1,14.5%
4,O=C(COc1ccc(Cc2ccccc2)cc1)c1ccc(F)cc1,3.42%
5,O=c1c2ccccc2nnn1CSc1nnc(-c2ccco2)o1,-14.8%
6,CCOc1ccc(CCNC(=O)COC(=O)c2ccc(F)c(S(=O)(=O)N3CCOCC3)c2)cc1OCC,-25.5%
7,O=C(NCCc1c[nH]c2ccccc12)/C(=C/c1cccnc1)NC(=O)c1ccco1,-64.7%
8,Cc1ccc(CN2CCN(/N=C/c3cc(Br)ccc3O)CC2)cc1,12.4%
9,Cc1nc2ccccn2c1C(=O)NNC(=S)Nc1ccc(Cl)cc1,-17.3%
10,COc1ccccc1NS(=O)(=O)c1cc(C(=O)NCCN2CCOCC2)ccc1Cl.Cl,-8.48%
11,O=C(COC(=O)c1n[nH]c2ccccc12)Nc1ccc(S(=O)(=O)N2CCCC2)cc1,-6.38%
12,Cc1ccc(NC(=O)c2cnn(-c3ccccc3)c2C)cc1,-3.55%
13,ON1C2CCCCC2N(O)C1c1ccccc1 (centres unmarked),13.2%
14,COc1cccc(-c2cc(C(=O)NC3CCCCC3)no2)c1,3.67%
15,COc1ccccc1NC(=S)N1CCC(NC(=O)C23CC4CC(CC(C4)C2)C3)CC1,25.6%
16,Cc1cc(C(=O)COC(=O)C2=NNC(=O)CC2)c(C)n1CCc1ccccc1,0.577%
17,Nc1ccc(-c2cc(-c3cccc(N)c3)nc(-c3ccccc3)n2)cc1,12%
18,CC(C)N(Cc1ccccc1)S(=O)(=O)c1ccc(Cl)nc1,-15.8%
